The values below come from the supplement of paper PMC4604168 (melanoma cell lines).

The list shows a part of the results. Single values are uncertain, as repeats are few or missing.
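Also: cells treated in 1,536-well plates, then fixed and DAPI-stained, with nuclei counted from automated high-throughput microscope images.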

For the experiment, the system named is SkMel5. Put plainly: cell count relative to DMSO control; melanoma cells; higher = more viable cells. Conditions: library dose: standard library concentration; 72 h.
For the compound `COc1cc([C@@H]2c3cc4c(cc3[C@@H](O[C@@H]3O[C@@H]5CO[C@@H](C)O[C@H]5[C@H](O)[C@H]3O)[C@H]3COC(=O)[C@H]23)OCO4)cc(OC)c1O` [etoposide] + Cc1ccc(NC(=O)c2cccc(N(C)C)c2)cc1NC(=O)c1ccc(O)cc1 [ZM336372] (first compound 0.1 µM, partner dose 10 µM), the cell count amounted to 81.1%.
The value for `Cn1cnc2c(F)c(Nc3ccc(Br)cc3Cl)c(C(=O)NOCCO)cc21` [selumetinib] + COc1cc2c(Oc3ccc4[nH]c(C)cc4c3F)ncnc2cc1OCCCN1CCCC1 [cediranib] (first compound 0.075 µM, partner dose 2 µM) was 69.2%; that for `COc1cc([C@@H]2c3cc4c(cc3[C@@H](O[C@@H]3O[C@@H]5CO[C@@H](C)O[C@H]5[C@H](O)[C@H]3O)[C@H]3COC(=O)[C@H]23)OCO4)cc(OC)c1O` [etoposide] + CN(C)S(=O)(=O)c1ccc2c(c1)/C(=C/c1cc3c([nH]1)CCCC3)C(=O)N2 [SU6656] (first compound 0.1 µM, partner dose 2 µM) was 68.3%.
`COc1cc([C@@H]2c3cc4c(cc3[C@@H](O[C@@H]3O[C@@H]5CO[C@@H](C)O[C@H]5[C@H](O)[C@H]3O)[C@H]3COC(=O)[C@H]23)OCO4)cc(OC)c1O` [etoposide] + CCCS(=O)(=O)Nc1ccc(F)c(C(=O)c2c[nH]c3ncc(Cl)cc23)c1F [PLX4720] (first compound 0.1 µM, partner dose 0.4 µM) gave a cell count of 67%.
`Cn1cnc2c(F)c(Nc3ccc(Br)cc3Cl)c(C(=O)NOCCO)cc21` [selumetinib] + CN(NC(=O)CC(=O)NN(C)C(=S)c1ccccc1)C(=S)c1ccccc1 [STA4783] (first compound 0.075 µM, partner dose 0.03 µM) yielded a cell count of 66.6%.
The value for `CCN(CC)CCNC(=O)c1c(C)[nH]c(/C=C2\C(=O)Nc3ccc(F)cc32)c1C` [sunitinib] + O=C(CCCCCCC(=O)Nc1ccccc1)NO [vorinostat] (first compound 2 µM, partner dose 0.4 µM) was 55.5%; that for `COc1cc([C@@H]2c3cc4c(cc3[C@@H](O[C@@H]3O[C@@H]5CO[C@@H](C)O[C@H]5[C@H](O)[C@H]3O)[C@H]3COC(=O)[C@H]23)OCO4)cc(OC)c1O` [etoposide] + C[C@@H]1CCN(C(=O)CC#N)C[C@@H]1N(C)c1ncnc2[nH]ccc12 [CP690550] (first compound 0.1 µM, partner dose 5 µM) was 126%.
In turn, `CCN(CC)CCNC(=O)c1c(C)[nH]c(/C=C2\C(=O)Nc3ccc(F)cc32)c1C` [sunitinib] + COc1cc(Nc2ncc(F)c(Nc3ccc4c(n3)NC(=O)C(C)(C)O4)n2)cc(OC)c1OC [Tamatinib] (first compound 2 µM, partner dose 2 µM) showed a cell count of 50.6%.
For `COc1cc([C@@H]2c3cc4c(cc3[C@@H](O[C@@H]3O[C@@H]5CO[C@@H](C)O[C@H]5[C@H](O)[C@H]3O)[C@H]3COC(=O)[C@H]23)OCO4)cc(OC)c1O` [etoposide] + OCCn1cc(-c2cnc3nnn(Cc4ccc5ncccc5c4)c3n2)cn1 [PF04217903] (first compound 0.1 µM, partner dose 5 µM), the cell count came to 84.8%.
To `C[C@]1(O)C[C@@H](c2nc(-c3ccc4ccc(-c5ccccc5)nc4c3)c3c(N)nccn32)C1` + CN(C)S(=O)(=O)c1ccc2c(c1)/C(=C/c1cc3c([nH]1)CCCC3)C(=O)N2 [SU6656] (first compound 2 µM, partner dose 2 µM) belongs 62.1%; to `C[C@]1(O)C[C@@H](c2nc(-c3ccc4ccc(-c5ccccc5)nc4c3)c3c(N)nccn32)C1` + COc1cc2c(Oc3ccc4[nH]c(C)cc4c3F)ncnc2cc1OCCCN1CCCC1 [cediranib] (first compound 2 µM, partner dose 2 µM), 71%.
`CCN(CC)CCNC(=O)c1c(C)[nH]c(/C=C2\C(=O)Nc3ccc(F)cc32)c1C` [sunitinib] + CO[C@@H]1[C@H](N(C)C(=O)c2ccccc2)C[C@H]2O[C@]1(C)n1c3ccccc3c3c4c(c5c6ccccc6n2c5c31)C(=O)NC4 [Midostaurin] (first compound 2 µM, partner dose 0.4 µM) had a cell count of 42.4%.
